From article PMC4336329 (PLoS ONE, 2015)
In all, about 310,000 compounds went through this assay and about 14,000 (4.5%) showed an effect of 50% or more. Effects have a minus sign here. Some of the results follow.

Each molecule was assayed against human ether-à-go-go-related gene (hERG) potassium channel (human, UniProt Q12809) (assay: primary screen, population patch clamp on CHO cells stably expressing hERG).
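Also: peak tail current of the secondary pulse compared with the same well before compound.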

Sequence of human ether-à-go-go-related gene (hERG) potassium channel (Q12809 whole entry, looked up): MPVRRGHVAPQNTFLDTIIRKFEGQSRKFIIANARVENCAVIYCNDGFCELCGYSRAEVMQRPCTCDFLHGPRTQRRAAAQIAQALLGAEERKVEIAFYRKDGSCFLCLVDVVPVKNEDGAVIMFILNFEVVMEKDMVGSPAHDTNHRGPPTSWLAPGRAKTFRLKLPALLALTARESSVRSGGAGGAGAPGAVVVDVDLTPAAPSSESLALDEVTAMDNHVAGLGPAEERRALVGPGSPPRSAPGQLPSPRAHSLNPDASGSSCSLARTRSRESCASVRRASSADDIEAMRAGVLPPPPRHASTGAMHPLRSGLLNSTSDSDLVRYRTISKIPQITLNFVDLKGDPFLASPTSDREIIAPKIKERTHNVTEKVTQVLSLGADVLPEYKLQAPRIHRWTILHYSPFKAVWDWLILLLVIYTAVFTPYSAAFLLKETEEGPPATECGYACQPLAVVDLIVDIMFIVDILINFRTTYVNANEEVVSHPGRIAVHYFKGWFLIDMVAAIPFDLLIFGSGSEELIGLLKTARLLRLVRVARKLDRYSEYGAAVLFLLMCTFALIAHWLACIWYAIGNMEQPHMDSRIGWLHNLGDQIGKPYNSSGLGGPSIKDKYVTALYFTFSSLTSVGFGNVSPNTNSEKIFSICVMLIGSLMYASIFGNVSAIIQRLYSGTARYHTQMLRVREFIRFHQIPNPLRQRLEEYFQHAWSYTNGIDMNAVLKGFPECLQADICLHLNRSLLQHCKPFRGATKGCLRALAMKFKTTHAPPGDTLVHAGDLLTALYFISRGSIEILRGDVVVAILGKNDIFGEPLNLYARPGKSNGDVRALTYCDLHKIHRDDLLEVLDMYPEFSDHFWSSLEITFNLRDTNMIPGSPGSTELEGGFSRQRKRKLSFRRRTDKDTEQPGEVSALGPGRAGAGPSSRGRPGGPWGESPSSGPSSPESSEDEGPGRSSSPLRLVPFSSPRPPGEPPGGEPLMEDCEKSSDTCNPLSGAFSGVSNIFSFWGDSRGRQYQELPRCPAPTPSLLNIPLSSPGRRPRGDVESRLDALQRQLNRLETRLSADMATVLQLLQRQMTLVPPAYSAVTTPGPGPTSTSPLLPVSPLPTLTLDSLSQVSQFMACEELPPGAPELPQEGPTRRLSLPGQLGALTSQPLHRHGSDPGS

Compared with `COc1ccc(S(=O)(=O)N2CCCCCC2)cc1C(=O)NCCOc1ccc(C)cc1`, `CCC(=O)c1ccc(OCC(=O)Nc2cc(S(=O)(=O)N3CCCCC3)ccc2N2CCN(CC)CC2)cc1` is lower in “hERG current change (%, negative = inhibition) at 10uM” value: -21.9% for the first, -84.3% for the second.

Compared with `CCOC(=O)C1(Cc2cccc(OC)c2)CCN(Cc2ccccc2OC)CC1`, `COc1ccccc1CCNC(=O)Nc1cccc([N+](=O)[O-])c1` is higher in “hERG current change (%, negative = inhibition) at 10uM” value: -51.3% for the first, 13.5% for the second.

Compared with `CCOC(=O)C1[C@H]2C(=O)N(CCCOC)C[C@]23C=C[C@H]1O3` (some centres unmarked), `COCCN(C(=S)Nc1ccc(OC)cc1)C1CCN(C(C)=O)CC1` is higher in “hERG current change (%, negative = inhibition) at 10uM” value: 1.81% for the first, 12.6% for the second.

First: Cc1ccc(S(=O)(=O)NCCS(=O)(=O)N2CCN(c3ccccc3)CC2)cc1
Second: Cc1ccc(Cl)cc1N1CCN(C2CCCCC2NS(=O)(=O)c2ccccc2)CC1 (centres unmarked)
The “hERG current change (%, negative = inhibition) at 10uM” value of the first is lower: -1.5% for the first, 17.9% for the second.

Compared with `CC(OC(=O)c1cccc(S(=O)(=O)N2CCN(C)CC2)c1)C(=O)Nc1ccc(C(N)=O)cc1` (centres unmarked), `CC(C)CC(=O)Nc1ccc(C(=O)CN2CCN(c3ccc(O)cc3)CC2)cc1` is lower in “hERG current change (%, negative = inhibition) at 10uM” value: 2.14% for the first, -1.5% for the second.

First: CCn1c(SCC(=O)OCc2ccccc2)nnc1-c1ccco1
Second: O=C(Oc1cccc2ccccc12)c1ccco1
The “hERG current change (%, negative = inhibition) at 10uM” value of the first is higher: 5.76% for the first, -6.45% for the second.

First: Cn1c(C(=O)NN)cc2cc(Oc3ccccc3)ccc21
Second: CCCn1c(NC(=S)Nc2ccccc2)nc2ccccc21
The “hERG current change (%, negative = inhibition) at 10uM” value of the first is lower: -8.77% for the first, 21.4% for the second.

Going from `N#Cc1c(N2CCCC(O)C2)nc(N)c2c(N)nc3c(c12)CC(=O)N3C12CC3CC(CC(C3)C1)C2` (centres unmarked) to `COc1ccc(NC(=O)NC23CC4CC(CC(C4)C2)C3)cc1OC`, the “hERG current change (%, negative = inhibition) at 10uM” value falls from 16.5% to 2.71%.

Going from `CCN(CC(=O)NCc1ccc(F)cc1)CC(=O)Nc1cc(S(=O)(=O)N(C)C)ccc1C` to `CCN(CC)S(=O)(=O)c1ccc(C(=O)NCC(c2cccs2)N2CCOCC2)cc1.Cl` (centres unmarked), the “hERG current change (%, negative = inhibition) at 10uM” value rises from -75.6% to -1.42%.

Going from `O=[N+]([O-])c1cccc(S(=O)(=O)Nc2ccc(S(=O)(=O)N3CCCC3)cc2)c1` to `C/C(=N\Nc1ccc(Cl)c(C(=O)O)c1)c1cccc([N+](=O)[O-])c1`, the “hERG current change (%, negative = inhibition) at 10uM” value falls from 2.95% to 2.73%.

First: NC(=O)c1ccc(NC(=O)Cn2c(=O)n(-c3ccccc3)c(=O)c3oc4ccccc4c32)cc1
Second: COc1ccc(C(=O)Nc2ccc(C(=O)NCCc3ccccc3)cc2)cc1
The “hERG current change (%, negative = inhibition) at 10uM” value of the first is lower: 5.82% for the first, 10.6% for the second.

Compared with `O=c1c(OC2OC(CO)C(O)C(O)C2OC2OC(CO)C(O)C(O)C2O)c(-c2ccc(O)cc2)oc2cc(O)cc(O)c12` (centres unmarked), `O=C(O)c1cc2ccc3ccccc3c2oc1=O` is higher in “hERG current change (%, negative = inhibition) at 10uM” value: 7.28% for the first, 19.7% for the second.

Compared with `Nc1nc(SCCO)[nH]c(=O)c1NC(=O)c1ccccc1F`, `CCC(Sc1nc(N)c(NC(=O)c2ccc(OC)c(OC)c2)c(=O)[nH]1)C(=O)OC` (centres unmarked) is lower in “hERG current change (%, negative = inhibition) at 10uM” value: 21.5% for the first, -2.71% for the second.

Going from `NC(=O)c1nn(-c2ccc(Cl)cc2Cl)c(=O)cc1O` to `COc1ccc(Cl)cc1NC(=O)CN1C(=O)CSC1=O`, the “hERG current change (%, negative = inhibition) at 10uM” value falls from 12.6% to 10.8%.

First: Cc1ccc(-c2nn3c(C)nnc3c3ccccc23)cc1S(=O)(=O)NC(C)(C)CO
Second: CNc1nnc(-c2ccc(C)cc2)c2ccccc12
The “hERG current change (%, negative = inhibition) at 10uM” value of the first is higher: -21.9% for the first, -39% for the second.

Compared with `Cc1[nH]c2ccccc2c1CN1CCc2ccccc2C1`, `CCN(CC)C(=O)c1nc[nH]c1C(=O)N1CCc2ccccc2C1` is higher in “hERG current change (%, negative = inhibition) at 10uM” value: -12.9% for the first, 20.9% for the second.

Compared with `CCOc1ccc(NC(=O)C(C)N2C(=O)c3ccccc3C2=O)cc1` (centres unmarked), `COc1ccc(NC(=O)CN2c3cccc4cccc(c34)S2(=O)=O)cc1` is higher in “hERG current change (%, negative = inhibition) at 10uM” value: 8.03% for the first, 17.3% for the second.

Compared with `Cc1cc(C)nc(Sc2ncnc(N)c2[N+](=O)[O-])n1`, `Cc1cccc(Nc2nc(N)nc(CCl)n2)c1C` is higher in “hERG current change (%, negative = inhibition) at 10uM” value: 6.79% for the first, 7.12% for the second.

Going from `Brc1cccc(OCCOCCn2ccnc2)c1.O=C(O)C(=O)O` to `C/C(=N\NC(=O)CNC(=O)c1cccnc1)c1cccc(O)c1`, the “hERG current change (%, negative = inhibition) at 10uM” value rises from -12.6% to 11.9%.

Compared with `O=S(=O)(Nc1ccc(Br)cc1)c1cccc2nonc12`, `CCc1ccc(NS(=O)(=O)c2ccc(OC)c3ncccc23)cc1` is higher in “hERG current change (%, negative = inhibition) at 10uM” value: 5.71% for the first, 18.1% for the second.

First: O=C(NCCN1CCOCC1)C(=O)c1c[nH]c2ccccc12
Second: CC(=O)Nc1ccccc1C(=O)N1CC2(C)CC1CC(C)(C)C2 (centres unmarked)
The “hERG current change (%, negative = inhibition) at 10uM” value of the first is lower: 10.1% for the first, 10.8% for the second.

First: CC(=O)N1CCCc2cc(S(=O)(=O)N3CCCC(C(=O)N4CCN(c5cc(C)ccc5C)CC4)C3)ccc21 (centres unmarked)
Second: CCOC(=O)N1CCN(S(=O)(=O)c2ccc(C)c(C)c2C)CC1
The “hERG current change (%, negative = inhibition) at 10uM” value of the first is lower: -3.55% for the first, -3.25% for the second.

Going from `O=C1c2cccc3c([N+](=O)[O-])c(O)cc(c23)C(=O)N1Nc1ccccc1` to `Cc1cccc(Nc2nn3c(=O)c4ccccc4nc3s2)c1`, the “hERG current change (%, negative = inhibition) at 10uM” value rises from 5.98% to 23.6%.

First: CN(C)C(=O)CSc1nnc(NC(=O)CCc2ccccc2)s1
Second: CC(C)Cc1nnc(NC(=O)CCC(=O)NCCc2ccc(Cl)cc2)s1
The “hERG current change (%, negative = inhibition) at 10uM” value of the first is lower: -5.24% for the first, 30.2% for the second.

First: OC(C#CCN1CCCCCC1)(c1ccccc1)c1cccnc1 (centres unmarked)
Second: CN1C(=O)C(O)(CC(=O)c2cccnc2)c2ccccc21 (centres unmarked)
The “hERG current change (%, negative = inhibition) at 10uM” value of the first is lower: -13% for the first, 10.6% for the second.

Going from `Cc1cc(C)cc(N(C(=O)c2csnn2)C(C(=O)NC2CCCCC2)c2ccccn2)c1` (centres unmarked) to `CC(=O)c1nnn(-c2nc(N3CCCC3)nc(N(c3ccccc3)c3ccccc3)n2)c1C`, the “hERG current change (%, negative = inhibition) at 10uM” value rises from -0.36% to 13.6%.

Going from `O=C(O)Cn1c(SCCOc2ccccc2F)nc2ccccc21` to `O=C(O)c1ccc(CSc2nc3ccccc3[nH]2)cc1`, the “hERG current change (%, negative = inhibition) at 10uM” value falls from 5.87% to -30.5%.

First: COC(=O)c1ccc(S(=O)(=O)N2CCC(C(N)=O)CC2)n1C
Second: CC(C(=O)Nc1ccccc1C(F)(F)F)N1CCN(C)CC1.O=C(O)C(=O)O (centres unmarked)
The “hERG current change (%, negative = inhibition) at 10uM” value of the first is higher: 14.8% for the first, 5.35% for the second.

First: Cc1ccc(S(=O)(=O)Nc2ncccn2)cc1
Second: COC(=O)C1(C(C[N+](=O)[O-])c2ccc(C)cc2)C(=O)NCC1c1ccco1 (centres unmarked)
The “hERG current change (%, negative = inhibition) at 10uM” value of the first is higher: 21.1% for the first, 7.35% for the second.

Going from `COc1ccc(CC(=O)OCc2cc3ccc(C)cc3[nH]c2=O)cc1` to `COc1ccc(/C=N/NC(=O)CCSc2nc3ccccc3s2)cc1`, the “hERG current change (%, negative = inhibition) at 10uM” value falls from 9.18% to -18%.

Compared with `O=C(O)/C=C/C(=O)Nc1ccccc1C(=O)Nc1ccccc1`, `CC(NC(=O)/C=C/c1ccccc1)c1ccccc1` (centres unmarked) is lower in “hERG current change (%, negative = inhibition) at 10uM” value: 14.1% for the first, 2.68% for the second.

Going from `Cc1ccsc1/C=N/NC(=O)Cc1ccc(Cl)cc1` to `CCOc1cc(/C=N/NC(=O)CN2CCCCC2)ccc1OCc1cccc(Cl)c1`, the “hERG current change (%, negative = inhibition) at 10uM” value falls from -6.82% to -45.3%.

Compared with `CC(=O)Nc1cccc(-c2cc(-c3c(Cl)cccc3Cl)no2)c1`, `Cc1cc(NC(=O)CN2C(=O)NC(C)(c3ccc(Cl)cc3)C2=O)no1` (centres unmarked) is higher in “hERG current change (%, negative = inhibition) at 10uM” value: 6.51% for the first, 39.2% for the second.

Compared with `O=c1c2ccccc2nc(-c2ccoc2)n1CCc1ccccc1`, `O=C1N/C(=C\c2ccccc2)C(O)=C1C=NCc1ccccc1` is higher in “hERG current change (%, negative = inhibition) at 10uM” value: -3.87% for the first, 5.77% for the second.

First: CCOC(=O)N1C(=O)[C@](CC)(c2ccccc2)N1C(=O)OCC
Second: CCOC(=O)C1=C(CCc2ccccc2)NC(=O)NC1c1ccc(C#N)cc1 (centres unmarked)
The “hERG current change (%, negative = inhibition) at 10uM” value of the first is higher: 6.48% for the first, -16.7% for the second.

Going from `O=C1OC(Nc2ccc(Br)cn2)c2ccccc21` (centres unmarked) to `CSc1ccccc1-c1nnc(-c2ccccc2)o1`, the “hERG current change (%, negative = inhibition) at 10uM” value falls from 7.42% to 3.34%.

First: Nc1nc2ccccc2n1/N=C/c1ccc([N+](=O)[O-])s1
Second: COc1ccccc1N1CCN(/N=C/c2cc(OC)c(OC(C)=O)c(OC)c2)CC1
The “hERG current change (%, negative = inhibition) at 10uM” value of the first is lower: -1.38% for the first, 19.5% for the second.

Compared with `NC(=O)c1ccc(NC(=O)COc2ccc(-n3cnnn3)cc2)cc1`, `O=C(Cn1cnc2c(nnn2Cc2ccc(F)cc2)c1=O)N1CCN(c2ccccc2)CC1` is lower in “hERG current change (%, negative = inhibition) at 10uM” value: -4.26% for the first, -29.1% for the second.

First: CCCN(CCC)c1ncnc2nc[nH]c12
Second: CC(C)(C)OC(=O)NCCCCCNC(=O)c1[nH]cnc1C(=O)Nc1ccon1
The “hERG current change (%, negative = inhibition) at 10uM” value of the first is lower: -7.36% for the first, 1.99% for the second.

First: CCNC(=O)c1sc2cc(C)ccc2c1Cl
Second: CCC(=O)Nc1nc2c(OC)ccc(OC)c2s1
The “hERG current change (%, negative = inhibition) at 10uM” value of the first is lower: -3.25% for the first, 11.4% for the second.

First: COc1cccc(NC(=O)C2CCCO2)c1 (centres unmarked)
Second: O=S(=O)(c1ccc(Br)cc1)c1nc(-c2ccco2)oc1NCC1CCCO1 (centres unmarked)
The “hERG current change (%, negative = inhibition) at 10uM” value of the first is higher: 17.7% for the first, -17.9% for the second.

Compared with `Cc1cccc(CN2CCN(C3CCCC3)C(CCO)C2)n1` (centres unmarked), `OCCC1CN(Cc2ccccc2-c2ccco2)CCN1Cc1ccsc1` (centres unmarked) is lower in “hERG current change (%, negative = inhibition) at 10uM” value: 3.1% for the first, -51% for the second.

First: CCOC(=O)CSc1cc(CS(C)(=O)=O)nc(-c2ccccn2)n1
Second: C=CCSc1nc2c(c(=O)[nH]c(=O)n2C)n1Cc1ccc(C)cc1
The “hERG current change (%, negative = inhibition) at 10uM” value of the first is lower: -28.1% for the first, 17.6% for the second.

First: O=C1CSC(=S)N1
Second: CNc1cc(N2CCNCC2)ccc1[N+](=O)[O-]
The “hERG current change (%, negative = inhibition) at 10uM” value of the first is higher: 35.1% for the first, -2.63% for the second.

For `CN(CCO)c1ccc(C(C(=O)c2ccccc2)c2ccc(N(C)CCO)cc2)cc1`, the “hERG current change (%, negative = inhibition) at 10uM” value was -5.99%.
